Reference: publication PMC4336329 (PLoS ONE, 2015)
Among all 310,000 compounds or so, about 14,000 (4.5%) showed an effect of 50% or more. Effects have a minus sign here. Some of the results follow.

Molecular target: human ether-à-go-go-related gene (hERG) potassium channel (human, UniProt Q12809)
Assay: primary screen, population patch clamp on CHO cells stably expressing hERG
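Further: peak tail current of the secondary pulse compared with the same well before compound.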

human ether-à-go-go-related gene (hERG) potassium channel, sequence (Q12809 whole entry, looked up): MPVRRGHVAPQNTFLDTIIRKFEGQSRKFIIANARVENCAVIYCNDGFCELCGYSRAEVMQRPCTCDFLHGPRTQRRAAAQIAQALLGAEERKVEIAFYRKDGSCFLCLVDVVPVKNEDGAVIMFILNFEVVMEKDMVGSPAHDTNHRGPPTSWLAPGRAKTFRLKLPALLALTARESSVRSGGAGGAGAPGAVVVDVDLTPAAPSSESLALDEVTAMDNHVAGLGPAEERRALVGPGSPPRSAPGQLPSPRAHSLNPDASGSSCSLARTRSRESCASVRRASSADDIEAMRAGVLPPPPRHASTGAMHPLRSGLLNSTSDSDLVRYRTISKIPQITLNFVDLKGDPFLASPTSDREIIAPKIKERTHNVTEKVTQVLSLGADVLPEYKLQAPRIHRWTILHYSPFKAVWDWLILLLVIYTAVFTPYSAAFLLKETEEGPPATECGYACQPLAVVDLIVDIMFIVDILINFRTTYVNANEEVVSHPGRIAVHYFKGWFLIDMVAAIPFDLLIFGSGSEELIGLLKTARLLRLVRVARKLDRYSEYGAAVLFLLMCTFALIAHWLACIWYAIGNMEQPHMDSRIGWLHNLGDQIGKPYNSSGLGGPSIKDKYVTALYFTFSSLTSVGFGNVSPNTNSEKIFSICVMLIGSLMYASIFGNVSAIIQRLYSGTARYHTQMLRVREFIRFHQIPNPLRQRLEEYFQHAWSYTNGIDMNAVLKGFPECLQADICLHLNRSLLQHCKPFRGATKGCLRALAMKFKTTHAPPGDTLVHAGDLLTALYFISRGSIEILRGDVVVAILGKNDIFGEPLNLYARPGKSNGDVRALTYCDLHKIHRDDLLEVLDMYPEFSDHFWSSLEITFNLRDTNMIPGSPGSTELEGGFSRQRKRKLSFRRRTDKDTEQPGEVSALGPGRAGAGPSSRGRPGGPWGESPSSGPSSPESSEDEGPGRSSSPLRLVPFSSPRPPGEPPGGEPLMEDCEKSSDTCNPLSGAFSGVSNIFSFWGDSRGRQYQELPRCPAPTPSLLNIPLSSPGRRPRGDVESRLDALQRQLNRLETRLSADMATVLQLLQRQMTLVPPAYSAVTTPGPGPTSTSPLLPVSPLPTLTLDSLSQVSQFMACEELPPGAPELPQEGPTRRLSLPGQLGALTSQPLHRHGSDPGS

| Compound | hERG current change (%, negative = inhibition) at 10uM |
| --- | --- |
| Cc1ccc(C)c(N2CCN(CCCc3ccccc3)CC2)c1 | -59.9% |
| COc1ccccc1NC(=O)c1cccc(S(=O)(=O)N2CCOCC2)c1 | -6.29% |
| C/C(=N\NC(=O)C(C)Sc1ccccc1)c1ccc([N+](=O)[O-])cc1 (stereo not shown) | -3.27% |
| Cc1ccc(C)c(C(=O)CN2C(=O)NC3(CCc4ccccc43)C2=O)c1 (stereo not shown) | -24.3% |
| C=CCOc1ccc(/C=N\NC(N)=S)cc1 | 5.76% |
| COc1cc(CNC2CCCCCCC2)cc(Cl)c1OCC(N)=O.Cl | 7.28% |
| OC(CN1CCN(Cc2ccccc2)CC1)Cn1c2ccccc2c2ccccc21 (stereo not shown) | -67.7% |
| C/C(CC(=O)Nc1cccnc1)=N\NC(=O)C(C)Oc1ccc(Cl)cc1Cl (stereo not shown) | 14.3% |
| Cc1ccc(Sc2ccc(/C=C3/C(=O)NN(c4ccccc4)C3=O)o2)cc1 | 12% |
| O=S(=O)(Nc1ccc(N2CCCCC2)cc1)c1cccc2cccnc12 | 4.19% |
| Cc1cc(NC(=O)COC(=O)COc2ccc(C(=O)c3ccccc3)cc2)no1 | 3.95% |
| COc1ccc(CC(=O)NNC(=O)c2ccco2)cc1 | 13% |
| Cc1cc2nc(C)n(CCCN)c2cc1C.Cl | -0.0557% |
| CC(=O)NC1(c2nnnn2CCOC(=O)Nc2ccc(Cl)cc2)CCCCC1 | -16.1% |
| CC(C)OC(=O)CSc1nnc(SCc2cccc3ccccc23)s1 | 7.07% |
| CC(=O)Cc1c[nH]c2ccccc12 | 11.7% |
| CN1C(=O)/C(=C\c2cc(Br)cs2)c2ccccc21 | 17.1% |
| CC(=O)N1CCN=C1SCc1ccc(Cl)cc1 | 0.0159% |
| Cc1ccc2sc(N(CCCN(C)C)C(=O)c3ccc(S(=O)(=O)N(C)Cc4ccccc4)cc3)nc2c1C.Cl | -20% |
| CC(C)C1N=C2c3ccccc3N=C(SCC(=O)NCCc3ccc(S(N)(=O)=O)cc3)N2C1=O (stereo not shown) | 8.56% |

| Compound | hERG current change (%, negative = inhibition) at 10uM |
| --- | --- |
| c1ccc(OCCN2CCN(Cc3nc(-c4ccc5c(c4)OCO5)no3)CC2)cc1 | -51.5% |
| CCCN(CCC)C(=O)Cc1coc2ccc3ccccc3c12 | -9.64% |
| N=c1sccn1CC(=O)NC(=O)NC1CCCC1 | 6.93% |
| O=C(NCCCn1ccnc1)c1ccccc1Cl | 17.2% |
| c1cncc(-c2nc(N3CCOCC3)c3c4c(sc3n2)CCC4)c1 | 5.82% |
| CCOc1cc(C#N)c(NC(=O)c2cccnc2)cc1OCC | 5.85% |
| CC1(c2ccccc2Cl)NC(=O)N(CC(=O)NCc2ccco2)C1=O (stereo not shown) | 18.9% |
| CCN(CC)S(=O)(=O)c1ccc(C)c(NC(=O)Cc2ccc(S(=O)(=O)N3CCOCC3)s2)c1 | -25% |
| Cc1nc2c(-c3ccc(F)cc3)cnn2c2c1CCC2 | -3.76% |
| Cc1ccc(OCC(=O)N/N=C\c2ccco2)c(C)c1 | -38% |
| COc1cc(OC)c(C2=NOC(C(=O)Nc3ccc4c(c3)OCO4)C2)cc1Cl (stereo not shown) | 10.7% |
| Cc1cccc(NN=C2c3ccccc3-c3ccccc32)c1 | 1.48% |
| Cc1ccc(N2C(=O)C(NC(=O)c3ccccc3)(C(F)(F)F)C3=C2CC(C)(C)CC3=O)cc1 (stereo not shown) | 7.2% |
| Cc1ccc(-c2nc(C)sc2CC(=O)Nc2nnc(C)s2)cc1 | 2.65% |
| O=C(NCCC1CCCCN1S(=O)(=O)c1cccs1)C(=O)Nc1ccc(F)cc1 (stereo not shown) | -6.79% |
| O=C(Nc1ccc(Cl)c(Cl)c1)Nn1cnnc1 | 20.5% |
| CCS(=O)(=O)N1CCC(C(=O)Oc2ccccc2Cl)CC1 | 11.6% |
| O=C(CSc1nnc2ccc(-c3ccccn3)nn12)NCC1CCCO1 (stereo not shown) | 8.8% |
| CC(=O)Nc1cccc(NC(=O)CSc2ccc3nnc(CCNC(=O)c4ccccc4)n3n2)c1 | 4.04% |
| CC1Cc2nc(SCC(=O)NC3CCCCC3)n(C)c(=O)c2S1 (stereo not shown) | -9.7% |

| Compound | hERG current change (%, negative = inhibition) at 10uM |
| --- | --- |
| CCCCOC(=O)Nc1ccc(N2CCOCC2)cc1 | -7.64% |
| NS(=O)(=O)c1ccc(CNS(=O)(=O)c2cc(C(=O)O)ccc2Cl)cc1 | 15.1% |
| Cc1nc(NCC(c2ccccc2)N(C)C)c2c(C)c(C)sc2n1 (stereo not shown) | -77.1% |
| COc1cc(OC)cc(OCC(O)Cn2cnc(-c3ccccc3)c2)c1 (stereo not shown) | -16.5% |
| Cc1cc(C)cc(NC(=O)C2CCCN(c3ncccn3)C2)c1 (stereo not shown) | -0.329% |
| Cc1ccc(NC(=O)c2sc(Cl)nc2-c2ccccc2)cc1C | 3.94% |
| O=C1CCCc2c1nn(-c1ccccc1)[n+]2[O-] | -8.91% |
| CCNC(=S)Nn1cnc2ccccc21 | -4.7% |
| COC(=O)c1ccc(NC(=O)Nc2ccc3c(c2)nc(C)n3C)cc1 | -10.3% |
| COc1ccc(C2C=C(c3ccc(Br)cc3)Nc3nc(N4C(=O)CCC4=O)nn32)cc1 (stereo not shown) | -26.5% |
| COc1ccc(-c2csc(NC(=O)c3cc(=O)c4ccccc4o3)n2)cc1OC | 4.58% |
| Cc1ccc(C(=O)N(CN2CCCC2=O)c2ccccc2)cc1 | -1.3% |
| Cc1c(C(=O)N2CCCCC2)sc(NC(=O)c2ccco2)c1C#N | 10.2% |
| O=C(CN1C(=O)CS/C1=C\c1nc(-c2ccc(Cl)cc2)cs1)Nc1cccnc1Cl | 24.3% |
| O=C1CSC(c2ccccc2[N+](=O)[O-])N1c1ccc(O)cc1 (stereo not shown) | 8.38% |
| COC(=O)c1ccc(CNC(=O)CCc2c[nH]c3ccccc23)cc1 | 4.48% |
| Cc1ccccc1C(=O)NC(=S)NCC1CCCO1 (stereo not shown) | 12% |
| Cc1ccc(NC(=O)N2CCc3ccccc3C2)cc1 | 1.58% |
